Data taken from the supplement of paper PMC7826260.
Some of the results follow. One pool of 16,384 single-stranded DNAs met each Rep nickase domain in vitro (1 h at 37 °C, 3 µM enzyme); the outer parts of the 90-letter strands are left off. A value is the log2 ratio of uncut reads to the pool without enzyme; strong cutting gives strongly negative numbers. There is no active / inactive call. Because reads are shares of a total, they shift together; values above 0 arise when much of the pool is cut.

Columns and labels:
Assay in all cases: uncleaved DNA left, log2 of reads against the no-enzyme library (log2 ratio); higher = less cleavage (more negative = more Rep cleavage of the k-mer); sequences stand for … in CTCGTCCG…ACCGGAGA
[1] = test system: T1, Rep nickase domain of Muscovy duck circovirus
T1 sequence (residues 1-111 of Rep, tag left off): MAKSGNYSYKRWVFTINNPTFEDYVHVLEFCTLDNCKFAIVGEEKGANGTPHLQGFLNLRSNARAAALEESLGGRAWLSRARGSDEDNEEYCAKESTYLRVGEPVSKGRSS
Experimental: (§1)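 A pool of 90-nt single-stranded DNAs with seven random bases just before the constant AC of the nick site (name = the seven bases) was cut by 3 µM recombinant His6-SUMO-tagged Rep nickase domain (300 nM DNA, 50 mM HEPES pH 8.0, 50 mM NaCl, 1 mM MnCl2, 1 h, 37 °C, three replicates). Uncut DNA was amplified and sequenced.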

[2] = test system: T2, Rep nickase domain of banana bunchy top virus
T2 sequence (residues 1-94 of Rep, tag left off): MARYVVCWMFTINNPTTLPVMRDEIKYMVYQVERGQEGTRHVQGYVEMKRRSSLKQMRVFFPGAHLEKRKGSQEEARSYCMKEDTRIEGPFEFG
Experimental: as §1

[3] = test system: T3, Rep nickase domain of cabbage leaf curl virus
T3 sequence (residues 1-116 of Rep, tag left off): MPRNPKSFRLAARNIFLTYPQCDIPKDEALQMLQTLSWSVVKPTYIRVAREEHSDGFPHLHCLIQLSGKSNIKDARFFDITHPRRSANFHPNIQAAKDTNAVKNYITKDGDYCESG
Experimental: as §1

[4] = test system: T4, Rep nickase domain of chickpea chlorotic dwarf virus
T4 sequence (residues 1-124 of Rep, tag left off): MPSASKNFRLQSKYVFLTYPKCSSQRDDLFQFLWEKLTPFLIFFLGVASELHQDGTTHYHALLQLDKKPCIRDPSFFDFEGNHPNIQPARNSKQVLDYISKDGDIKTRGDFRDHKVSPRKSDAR
Experimental: as §1

[5] = test system: T5, Rep nickase domain of faba bean necrotic yellows virus
T5 sequence (residues 1-98 of Rep, tag left off): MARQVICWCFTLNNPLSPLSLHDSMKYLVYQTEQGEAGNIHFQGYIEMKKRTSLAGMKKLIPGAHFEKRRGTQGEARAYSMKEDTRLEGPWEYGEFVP
Experimental: as §1

[6] = test system: T6, Rep nickase domain of maize striate mosaic virus
T6 sequence (residues 1-117 of Rep, tag left off): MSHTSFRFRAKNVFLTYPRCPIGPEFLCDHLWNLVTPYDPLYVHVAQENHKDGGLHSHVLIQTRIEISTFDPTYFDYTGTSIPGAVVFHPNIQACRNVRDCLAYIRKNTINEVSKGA
Experimental: as §1

[7] = test system: T7, Rep nickase domain of porcine circovirus 2
T7 sequence (residues 2-116 of Rep, tag left off): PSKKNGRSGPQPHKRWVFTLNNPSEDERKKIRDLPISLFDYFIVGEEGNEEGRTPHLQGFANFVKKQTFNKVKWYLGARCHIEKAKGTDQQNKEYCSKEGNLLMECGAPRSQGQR
Experimental: as §1

[8] = test system: T8, Rep nickase domain of tomato golden mosaic virus
T8 sequence (residues 1-124 of Rep, tag left off): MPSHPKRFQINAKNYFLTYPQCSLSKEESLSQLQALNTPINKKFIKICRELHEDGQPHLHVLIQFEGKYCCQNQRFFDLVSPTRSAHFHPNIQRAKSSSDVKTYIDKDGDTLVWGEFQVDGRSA
Experimental: as §1

[9] = test system: T9, Rep nickase domain of tomato yellow leaf curl virus
T9 sequence (residues 1-136 of Rep, tag left off): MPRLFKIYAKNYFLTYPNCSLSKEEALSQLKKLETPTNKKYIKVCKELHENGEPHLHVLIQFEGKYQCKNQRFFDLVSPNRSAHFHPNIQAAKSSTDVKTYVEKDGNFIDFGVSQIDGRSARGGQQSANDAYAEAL
Experimental: as §1

[10] = test system: T10, Rep nickase domain of wheat dwarf virus
T10 sequence (residues 1-137 of Rep, tag left off): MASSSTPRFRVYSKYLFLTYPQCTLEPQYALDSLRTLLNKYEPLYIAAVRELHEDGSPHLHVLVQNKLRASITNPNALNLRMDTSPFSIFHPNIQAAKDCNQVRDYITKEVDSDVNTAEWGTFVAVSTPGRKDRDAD
Experimental: as §1

Sequence	uncleaved DNA left (log2) [1]	uncleaved DNA left (log2) [2]	uncleaved DNA left (log2) [3]	uncleaved DNA left (log2) [4]	uncleaved DNA left (log2) [5]	uncleaved DNA left (log2) [6]	uncleaved DNA left (log2) [7]	uncleaved DNA left (log2) [8]	uncleaved DNA left (log2) [9]	uncleaved DNA left (log2) [10]
AGTTAGG	0.124	0.135	0.293	1.18	0.103	1.04	0.188	0.213	-0.0348	0.0527
TCTGGCA	-0.0265	-0.0429	-0.252	-0.475	0.0995	-0.677	-0.0666	-0.0978	0.00183	-0.172
TAGAAAC	0.128	0.0984	0.163	-0.31	0.013	-0.427	-0.0633	0.0777	0.0535	0.177
CTGCCGG	-0.0022	-0.0707	0.315	0.97	0.0808	0.773	0.124	0.0939	-0.00193	0.025
AAGAAAG	0.137	0.0864	-0.497	-0.271	0.193	-0.928	0.263	0.156	0.123	-0.0288
GGGTAGT	-0.0333	-0.00604	0.806	1.87	-0.155	2.21	-1.34	0.0198	0.0832	0.169
ACACGTA	-0.0414	-0.0491	-0.534	-1.03	0.0455	-0.948	0.0224	-0.0785	-0.219	-0.2
TCCTCTT	-1.92	-0.23	-0.139	-1.87	0.0863	-0.322	-2.93	-0.0555	-0.195	-0.172
TAACTGA	0.0371	-0.00466	-0.142	-0.755	0.0158	1.14	0.072	-0.085	-0.0523	0.0197
GGCTGCT	-0.183	-0.0228	0.0766	0.327	-0.00949	0.47	-1.6	0.0537	0.00805	0.0332
GCATACC	0.0297	-0.00398	0.00557	-0.232	-0.0228	0.0188	-0.434	-0.014	-0.0679	0.0908
ACAAGCT	0.0363	0.122	-0.123	0.141	0.131	-0.116	0.262	0.0343	-0.0195	0.0647
GGGCGGC	0.0739	-0.0338	0.825	1.73	-0.0887	2.17	0.198	0.0245	-0.0318	0.0759
GTCGTTA	-0.0855	-0.0365	0.151	0.618	-0.0293	1.53	-0.0797	-0.0085	-0.0253	-0.0226
TCCCTCA	-0.0452	-0.0224	-0.0701	-1.07	-0.0707	-0.22	-0.196	-0.0795	-0.076	-0.0274
GACATTG	0.107	0.0581	0.0294	0.539	-0.00155	-0.207	0.225	0.0529	0.109	0.00431

Sequence	uncleaved DNA left (log2) [1]	uncleaved DNA left (log2) [2]	uncleaved DNA left (log2) [3]	uncleaved DNA left (log2) [4]	uncleaved DNA left (log2) [5]	uncleaved DNA left (log2) [6]	uncleaved DNA left (log2) [7]	uncleaved DNA left (log2) [8]	uncleaved DNA left (log2) [9]	uncleaved DNA left (log2) [10]
CGTTCAC	-0.157	-0.0464	0.0892	-0.294	-0.0132	-0.266	0.0197	-0.0852	0.0997	0.0259
GTATATT	-2.56	-0.0826	-0.833	-0.57	-0.12	1.71	-2.63	-0.0728	0.183	-0.179
CTACAGC	-0.152	-0.119	-0.45	-1.2	-0.11	-0.949	-0.0108	-0.115	-0.0639	0.00183
GACCGAG	0.0543	0.0641	0.777	1.74	0.0331	1.55	0.216	0.00605	0.0993	0.205
GGGTTCG	0.0505	0.0662	0.477	0.966	0.0335	1.04	0.187	-0.0112	-0.00752	0.0455
GTGACAG	-0.15	0.0427	0.707	1.8	-0.0367	2.07	0.0429	-0.00669	-0.0514	-0.00745
TACTGGT	-2.79	-0.582	-1.23	-1.57	0.0387	0.889	-3.39	-0.0607	0.045	-0.151
TTCGGGG	0.00381	-0.0742	0.571	0.824	0.0295	1.13	0.15	-0.00353	-0.0632	0.0251
TTATGTG	-0.0831	-0.118	-0.851	-0.486	0.0124	-1.23	0.072	-0.0159	-0.067	-0.181
ATTGATC	0.093	0.0522	0.0783	0.46	-0.0424	0.322	0.147	0.119	0.0478	0.109
TATGAAG	0.16	0.0464	-0.709	0.0146	0.246	-0.933	0.188	0.0892	0.16	0.0894
ACTATCT	-0.072	-0.0163	-0.374	-2.37	-0.0804	-0.851	-2.94	0.0019	-0.039	-0.175
TTCGCTA	0.0528	-0.229	-0.0492	-0.77	0.00434	-0.68	-0.0183	0.0456	0.00965	-0.0578
ATAGATG	0.0633	0.0734	0.125	0.804	0.0168	0.572	0.187	0.127	0.0131	0.0572
TGCGCCA	-0.0464	0.00419	-0.154	-0.374	0.0555	-0.234	-0.0751	-0.0447	-0.0394	-0.0572
